Results reported in patent publication US20230340060A1, “NOVEL MEANS TO PREDICT AND MANIPULATE NMDA RECEPTOR-MEDIATED TOXICITY” (FundaMental Pharma GmbH, priority 2020, published 2023).

System: HEK293 cells
Experiment: Luminescent Cytotoxicity Assay (CytoTox-Glo) after transfection with GluN1 and GluN2A or GluN2B constructs
Type: cell-based, human
Conditions: combined expression with GluN1, 48 h after transfection
Method: HEK293 Cell Culture HEK293 cells were cultured in Dulbecco's Modified Eagle Medium (DMEM, Gibco™, 41965-039) supplement with 10% Fetal Bovine Serum (FBS, Gibco™, 10270), 1% Sodium Pyruvate (Gibco™, 11360070), 1% MEM NEAA (Gibco™, 11140035) and 0.5% Penicillin-Streptomycin (P-S; Sigma, P0781) and Passage15-25 were used for experiments.
To test the cytotoxicity of compounds according to the present invention, HEK293 cells (70-80% confluent) were transfected 24 hours after plating with expression vectors for both GluN1 and GluN2A or GluN2B, respectively (1:1; 2 μg plasmids in total per 6-cm dishes) with Lipofectamine 2000 according to manufacturer's instructions. The relative number of dead cells in the population at the indicated time points after transfection was measured with the CytoTox-Glo™ Cytotoxicity assay (Promega, G9290) according to manufacturer's instruction with minor modification. Briefly, 10% of total medium were mixed with 10 μL AAF-amino luciferin to reach a final volume at 200 μL with water, the dead cell relative luminescence units (DRLU) was measured by GloMax (Promega) in a 96 well white bottom polystyrene microplate (Corning Costar®, 3912). After all the measurements, lysis reagents have been added to the cells and 10% of lysate was used for the total cell relative luminescence units (TRLU) measurement. Cell death was calculated by the following equations: […]

B1: SEQ ID NO:41: rat GluN2A deletion mutant lacking only the sequence motif of SEQ ID NO:1 (protein)
chain: MGRLGYWTLLVLPALLVWRDPAQNAAAEKGPPALNIAVLLGHSHDVTERELRNLWGPEQATGLPLDVNVVALLMNRTDPKSLITHVCDLMSGARIHGLVFGDDTDQEAVAQMLDFISSQTFIPILGIHGGASMIMADKDPTSTFFQFGASIQQQATVMLKIMQDYDWHVFSLVTTIFPGYRDFISFIKTTVDNSFVGWDMQNVITLDTSFEDAKTQVQLKKIHSSVILLYCSKDEAVLILSEARSLGLTGYDFFWIVPSLVSGNTELIPKEFPSGLISVSYDDWDYSLEARVRDGLGILTTAASSMLEKFSYIPEAKASCYGQAEKPETPLHTLHQFMVNVTWDGKDLSFTEEGYQVHPRLVVIVLNKDREWEKVGKWENQTLSLRHAVWPRYKSFSDCEPDDNHLSIVTLEEAPFVIVEDIDPLTETCVRNTVPCRKFVKINNSTNEGMNVKKCCKGFCIDILKKLSRTVKFTYDLYLVTNGKHGKKVNNVWNGMIGEVVYQRAVMAVGSLTINEERSEVVDFSVPFVETGISVMVSRSNGTVSPSAFLEPFSASVWVMMFVMLLIVSAIAVFVFEYFSPVGYNRNLAKGKAPHGPSFTIGKAIWLLWGLVFNNSVPVQNPKGTTSKIMVSVWAFFAVIFLASYTANLAAFMIQEEFVDQVTGLSDKKFQRPHDYSPPFRFGTVPNGSTERNIRNNYPYMHQYMTRFNQRGVEDALVSLKTGKLDAFIYDAAVLNYKAGRDEGCKLVTIGSGYIFASTGYGIALQKGSPWKRQIDLALLQFVGDGEMEELETLWLTGICHNEKNEVMSSQLDIDNMAGVFYMLAAAMALSLITFIWEHLFYWKLRFCFTGVCSDRPGLLKKKSPDFNLTGSQSNMLKLLRSAKNISNMSNMNSSRMDSPKRATDFIQRGSLIVDMVSDKGNLIYSDNRSFQGKDSIFGDNMNELQTFVANRHKDNLSNYVFQGQHPLTLNESNPNTVEVAVSTESKGNSRPRQLWKKSMESLRQDSLNQNPVSQRDEKTAENRTHSLKSPRYLPEEVAHSDISETSSRATCHREPDNNKNHKTKDNFKRSMASKYPKDCSDVDRTYMKTKASSPRDKIYTIDGEKEPSFHLDPPQFVENITLPENVGFPDTYQDHNENFRKGDSTLPMNRNPLHNEDGLPNNDQYKLYAKHFTLKDKGSPHSEGSDRYRQNSTHCRSCLSNLPTYSGHFTMRSPFKCDACLRMGNLYDIDEDQMLQETGNPATREEVYQQDWSQNNALQFQKNKLRINRQHSYDNILDKPREIDLSRPSRSISLKDRERLLEGNLYGSLFSVPSSKLLGNKSSLFPQGLEDSKRSKSLLPDHASDNPFLHTYGDDQRLVIGRCPSDPYKHSLPSQAVNDSYLRSSLRSTASYCSRDSRGHSDVYISEHVMPYAANKNTMYSTPRVLNSCSNRRVYKKMPSIESDV
modifications: GluN2A LACK SEQ ID 1, Q00959, NMDE1_RAT
  cell death: much lower level of cell death
Listed as GluN2A: lacking SEQ ID NO:1
  cell death: substantially lost their capacity to induce cell death
